Test results published in the supplement of paper PMC10126150.
Sequences with one replicate were seen in a single cluster, so their values are uncertain.

Test system: ATP
Assay: switch fluorescence ratio, 500 uM ATP over buffer (Cy3 cluster intensity, sum of 5 cycles each) (fold (ratio)); higher = stronger signal-on switching upon ATP binding; sequences stand for … in TCGTCGGCAGCGTCAGATGTGTATAAGAGACAGTTTTTTTTTTTTTTTTTTTTTTTTT…TC
Conditions: aptamer strand: ATP DNA aptamer (quencher-CACCTGGGGGAGTATTGCGGAGGAAGG + anchor), 100 nM annealed; ATP concentration: 500 uM; one replicate
Method in brief: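 After annealing to 100 nM quencher-labelled ATP aptamer, Cy3-labelled switching-strand clusters on a modified Illumina MiSeq flow-cell were imaged in selection buffer. A second image followed after 15 min with 500 uM ATP at 22 °C, and five such buffer/ATP cycles were done, each separated by NaOH stripping and re-annealing. The fluorescence ratio, averaged per switch-domain sequence, is summed target-cycle over summed buffer-cycle Cy3 intensity per cluster, with clusters outside 100-1000 RFU excluded.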
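Note: ATP exposure 15 min at 22 °C before imaging.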

Sequence | switch fluorescence ratio
TTCGAGTTCG | 1.01
TGTGTTTGGC | 1.02
CGCCTCCATA | 1.09
TGGTGATACG | 1.01
GAAAGCCAAC | 1.06
ATTTATGACC | 0.998
ATTTGTACCA | 0.992
AGGATGCTTG | 0.958
TAAAATATGC | 0.957
TTAGCAATG | 2.05
AGCGCTAAAC | 0.984
GGGAGATGAG | 1.01
CGGAAGAACG | 1
TTAACCAACC | 1.21
CTAGGAAGGA | 1.02
TGGCTAGAAA | 0.995
TTTGCGACCG | 1.01
AGTCTCACAG | 1.03
TGAGAATT | 1.01
CAATTGAGCG | 1
AGTCAGGAAA | 1
ATCCATCTGG | 0.996
TTTAAGCTA | 1.01
CCTGCACCGG | 1.07
AGACTTCTAC | 1.08
GGAGTTCCCC | 1.01

Sequence | switch fluorescence ratio
CGATTATAGT | 0.996
TATAGTCCGG | 0.998
CACTGAGTTC | 1.03
GACCATTTAT | 1.01
GCTACTAGCC | 1.06
AAGGAGGTGA | 0.993
CGTGAAGACC | 1.03
GCTTTAGTGC | 1
CAAGAGACGA | 1.06
GAAAGGAGGC | 0.963
AATTCTTATA | 1.03
GACCTCTCCA | 1.08
CTGGGGACTG | 0.991
ACCCGAGCT | 1.07
GGTATCTCGC | 1.02
TATTGACGG | 1.04
ATAACTTTGA | 0.982
GGATCAGCTC | 1.02
GGTGTCTTAT | 0.996
GATGAAATAA | 1.03
GACCTTATAG | 1.03
GTTGCATTCC | 1.52
CTGCCGTTCA | 1.04
ATTAAATGCG | 1.04
AACCTTTATG | 1.03
CGAACTTGAG | 0.977

Sequence | switch fluorescence ratio
GGACTACGAT | 1.02
GTGCTGTCGT | 0.987
TATGACCGAC | 1.18
TTTATGCATC | 1.39
GGCCAATGAA | 1
TGGGGGGGT | 0.99
CGCGTATGG | 1.06
CTCACCGGGG | 1.35
CCGTTACTAT | 1.21
GGTTGCACGT | 1.04
CAATTAGGTG | 1.21
GCAAGAAGGG | 1.02
CGAGAAGGTC | 0.995
CGGAAGCAAG | 1.57
GGGTGTGACA | 0.969
TAGATTACCG | 0.994
TGATAACCTG | 1.09
TTCTATTGTG | 0.98
GCTAACTGAT | 0.994
TTGACCAAGA | 1.01
AGGGGGAAC | 0.968
AATGGTAGC | 1.02
ATATAACCTT | 1.74
GTTAATTCTT | 0.995
AACTCAGGTT | 1.01
AGAATGGTAG | 0.964

Sequence | switch fluorescence ratio
GAGTGGGGCA | 0.977
TCGTAAGCGA | 1.18
GAGTTGTGGA | 0.986
TAGCGTACT | 1.22
TCTCTCTATC | 1.06
AAGATCAAGT | 1.03
TAAGGGATAA | 0.981
TTTGTAATA | 1.01
ATCTCTGAA | 1.03
ATCCGGGGCG | 1.01
TTAATTCAAA | 0.998
CCTGTGTCGA | 1.1
ATTACCCCCT | 1.6
TGTGTCTTA | 1.01
ATGGTTTGTG | 0.987
GTTCTATTAT | 0.989
TTGATCCGTC | 1.04
GCGGTATTCA | 0.996
GTTCATACA | 0.985
CGAACAGTCC | 1.05
CACTGTTGTT | 0.934
TATATGGGG | 0.976
TGTATTGAGG | 1.02
CGGGGTTACA | 0.991
CGCGACATT | 1
TGAAGAGGCT | 1.05

Sequence | switch fluorescence ratio
AATGTCTTAG | 1.01
TAAATGAAGA | 0.973
TTCCTTTGTA | 1.05
TTTTTTCAA | 1.02
AACCTTTGTG | 0.976
GCCCGATCTA | 1.16
TTGAGCCGCT | 1
GGGCCTCAAC | 1.01
TTCGTACCTA | 1.07
AAGTAGGGAG | 1.03
CAGGGGTCGC | 0.934
GGGTTCTTGA | 0.964
CACGGGCATA | 1.12
CTGAGTCAAG | 1.1
GACCCACAGC | 1.23
GGTTGATCTA | 0.983
AGATAGATG | 0.988
TCGCTTGATA | 0.983
TGTAAATGGA | 1.01
TCCCTTTATT | 1.26
TGATGCGACT | 0.988
CTCTCCGAGT | 1.21
GTTTTCCA | 0.976
CTTTGAACGG | 1.02
GGTATCATTT | 1.01
CAACTACGCT | 1.37

Sequence | switch fluorescence ratio
CGATGAGCCG | 0.969
TAATAGTCGG | 0.994
TGACGAGCCT | 1.09
CGATCAGACG | 1.07
GCAGCTGCCT | 1.05
TTGGCTGCTC | 0.965
CGAGGGGCGG | 0.952
TATAAGGTCA | 0.993
GGCTTAAT | 1.01
TCATTAATCG | 0.999
TGACGGGAT | 1
GTTCATTTTG | 1.04
TTGTACCACG | 1.02
CGTACTTCAT | 1.01
ATATTCGTAG | 0.96
ATGGGATAGT | 0.987
CAGGAACTCT | 1.02
GGAGGGCCGG | 0.984
GGGTGCGCCT | 1.07
GGGTAGATCG | 1.05
CATGTAAATT | 0.994
TTGATCTGGA | 0.957
TGACATGAAA | 0.998
GTGGGAGT | 1.05
AGAAAAGGCT | 1.4
CTATCTCCTC | 1.04

Sequence | switch fluorescence ratio
TACCGCCGAA | 1.02
AGTCTTGTTC | 0.985
CGGTGGGTGA | 1.01
CAGTTATTGT | 0.939
TTTGTACAAT | 1.01
GAGAAAACGG | 1.04
CATCAAAATC | 2.03
CTTATATGCA | 1.09
CTACTATT | 0.985
TCCGTATGGT | 1.01
AAAGGAACA | 0.938
GTTTTTGCAG | 0.983
AGTAGTGCAC | 1.02
AGTTCGGAGA | 1.03
AATAGGCAGT | 1.01
CCCCTAAACA | 0.947
GACAAAATC | 1.18
TCGGATAGTT | 1.01
GTGGGGCAAG | 1.02
ACTTGGGGAA | 0.936
AGATCAGGGG | 1.02
AGAACTTGTG | 1.05
CGTTTGTTAC | 1.11
CCGGGTAGGT | 1.05
CCATTATATT | 1.01
GACACACGAA | 1.34

Sequence | switch fluorescence ratio
CATACCAGCA | 1.04
CCGAAAAAGG | 1.05
TACGGGAAAG | 1.06
TTGAGTTTA | 0.99
GGGCGAATCG | 0.98
GGGCCACAGG | 1.06
TGAGTTTTC | 0.965
GCCTTGC | 1.23
CTTGAACGCC | 1.09
GATGAAGATA | 1.03
CTATTGCAGG | 1.05
TCTCGAGCTT | 1.13
CATTACGTGA | 1
GGCGCGGACA | 1.03
GCGGAAGATT | 1.02
TACTATGAT | 1.02
AGTTGGCAGT | 0.971
CGTGCCTGTG | 0.985
GTACGCAAAT | 1.48
